Measurements as given in PubChem BioAssay AID1631 (National Center for Advancing Translational Sciences (NCATS), 2009).
Among all 260,000 compounds or so, about 890 (0.34%) were called active. This list was built around the results that the source calls inconclusive (neither active nor inactive); the mix of calls is not that of the screen. The call rests on the fitted dose curve; in most records, active means well fitted activation curve with a large enough effect; inconclusive means small, poorly fitted or top-dose-only effect; inactive means no such curve, though single readings can be large or run the other way. A potency beside an inconclusive call is a rough fit, not a confirmed value.

These molecules were tested against Pyruvate kinase PKM (Homo sapiens) (UniProt P14618) (assay: qHTS Assay for Activators of Human Muscle isoform 2 Pyruvate Kinase). Details: purified PKM2, Kinase-Glo ATP luminescence; Potency: activation; activation: at 57.5 µM (top of the series), 0% is enzyme alone, no compound.
UniProt P14618, sequence (P14618 whole entry, looked up, canonical isoform): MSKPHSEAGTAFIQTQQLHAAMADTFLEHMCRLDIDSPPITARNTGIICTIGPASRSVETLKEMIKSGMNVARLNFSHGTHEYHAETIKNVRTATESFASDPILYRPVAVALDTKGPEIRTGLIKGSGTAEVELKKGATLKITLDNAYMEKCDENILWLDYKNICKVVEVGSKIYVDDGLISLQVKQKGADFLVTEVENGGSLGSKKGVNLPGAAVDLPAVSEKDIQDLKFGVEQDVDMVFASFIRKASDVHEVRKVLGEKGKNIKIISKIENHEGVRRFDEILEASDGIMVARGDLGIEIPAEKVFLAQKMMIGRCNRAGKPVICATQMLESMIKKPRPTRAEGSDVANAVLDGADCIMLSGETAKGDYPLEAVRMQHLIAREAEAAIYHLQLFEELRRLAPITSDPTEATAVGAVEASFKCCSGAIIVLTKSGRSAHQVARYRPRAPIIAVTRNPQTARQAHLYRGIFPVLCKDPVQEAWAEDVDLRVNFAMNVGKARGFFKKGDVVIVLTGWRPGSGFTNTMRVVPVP
Procedure, shortened: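 Kinase-Glo luminescence reports ATP generated from ADP (0.1 mM) and PEP (0.5 mM) by purified hPK-M2 after 1 h at room temperature, pH 7.2 imidazole buffer; intermediate enzyme activity allows detecting inhibitors and activators.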
Further: nearly all actives have a fitted effect of over 55% in size.
On the % scale 0 is the no-effect control and ±100 the full control effect; potency means the concentration at half of the fitted maximal effect; tags describe the fitted curve by direction and shape.

Potency, active:
Cc1occc1-c1nnc(SCCCC(=O)c2ccc(F)cc2)n1C 25.1 µM
Cc1cc(=O)n2c3c(sc2n1)C(=O)N(Cc1ccccc1)C3=O 28.2 µM
CCOC(=O)c1c(-c2ccc(C)o2)csc1NC(=O)CSc1nncs1 8.91 µM
CN(C)S(=O)(=O)c1ccc(C(=O)NCCN2C(=O)S/C(=C\c3cccnc3)C2=O)cc1 15.8 µM
Brc1ccc(OCc2nnnn2-c2ccccc2)cc1 25.1 µM
O=[N+]([O-])c1ccc(NCCNS(=O)(=O)c2ccccc2)c(C(F)(F)F)c1 28.2 µM
Cc1cc(NC(=O)CSc2nc3c(cc2C#N)CCC3)no1 2.51 µM

Potency, inconclusive:
Cc1c(C(=O)Nc2ccc(S(N)(=O)=O)cc2)oc2ccc(Cl)cc12 39.8 µM [rising, single point]
O=C(Nc1cccc2nsnc12)c1ccc(-c2ccc(Br)cc2)o1 28.2 µM [rising, single point]
Cc1nc(SCC(=O)NC(=O)NC(C)C)nc(C)c1C 10 µM [rising, partial curve, poor fit]
O=C(NCc1ccco1)Nc1ccc2snnc2c1 7.08 µM [rising, single point]
Cn1c(CCNS(=O)(=O)c2ccccc2)nc2cc([N+](=O)[O-])ccc21 14.1 µM [rising, partial curve]
O=C(CSc1nnc(-c2cc3ccccc3cc2O)n1Cc1ccco1)N1CCc2ccccc2C1 35.5 µM [rising, single point]
CCn1c(-c2cc(-c3ccccc3)sc2N)n[nH]c1=S 3.98 µM [rising, single point]
O=C(NCC(O)COc1ccc([N+](=O)[O-])cc1)Nc1ccccc1 (centres undefined) 17.8 µM [rising, partial curve]
O=C(/C=C/c1ccc(Br)cc1)NC(=S)Nc1ccc(S(=O)(=O)Nc2nccs2)cc1 3.55 µM [rising, full curve]
CNCc1ccccc1Sc1cc(O)ccc1O 0.631 µM [rising, full curve]
O=C(CSc1nnc(-c2cccs2)o1)N1CCc2ccccc21 7.08 µM [rising, single point]
COCCNC(C(=O)Nc1ccc([N+](=O)[O-])cc1Br)c1ccccc1 (centres undefined) 39.8 µM [rising, single point]
COc1ccccc1OCC(=O)NCCCn1ccnc1 20 µM [rising, partial curve]
S=C(NCc1ccccc1)NCc1cccc(CNC(=S)NCc2ccccc2)c1 22.4 µM [rising, partial curve]
Cc1ccc(S(=O)(=O)N2CCC(C(=O)OC(C)C(=O)NCc3ccc4c(c3)OCO4)CC2)cc1 (centres undefined) 25.1 µM [rising, single point]
O=C(CSc1nc(-c2ccc(F)cc2)nc2c1Cc1ccccc1O2)Nc1cccc(C(=O)O)c1 35.5 µM [rising, single point]
COc1ccccc1C(=O)NCc1nnc(SC(C)C(=O)Nc2nccs2)n1C (centres undefined) 14.1 µM [rising, partial curve]
O=C(NCCOc1ccccc1Cl)C(=O)NCCOc1ccccc1Cl 35.5 µM [rising, single point]
COc1cc(/C=N/Nc2nc3ccccc3[nH]2)cc(Br)c1OCC(=O)N(C)C 28.2 µM [rising, single point]
O=S(=O)(c1c(F)cccc1F)N1CCN(C(=S)NCc2ccc3c(c2)OCO3)CC1 15.8 µM [rising, partial curve]
CCC(C)(C)n1nnnc1C(c1ccc(O)c(OC)c1)N1CCN(c2nc3ccccc3s2)CC1 (centres undefined) 20 µM [rising, partial curve]
O=C(O)CSC12CC3CC(C1)CC(C(=O)O)(C3)C2 39.8 µM [rising, single point]
COC(=O)c1cn(NC(=O)c2ccc(OC)c(OC)c2)c(=O)c2ccccc12 39.8 µM [rising, single point]
NN1C(=O)/C(=C\c2ccco2)SC1=S 3.98 µM [rising, full curve]
O=C(COc1ccc(S(=O)(=O)NC2CCCCC2)cc1Cl)NCC1CCCO1 (centres undefined) 31.6 µM [rising, partial curve]
O=C(NCCOc1ccccc1)C1CCCCC1 20 µM [rising, single point]
O=C(Nc1cc([N+](=O)[O-])ccc1N1CCCC1)c1ccco1 39.8 µM [rising, single point]
COc1ccccc1N1C(=O)C=C(Sc2nc(C)cc(C)n2)C1=O 10 µM [rising, partial curve]
COc1ccc(CN2CCN(C(=O)c3cccs3)CC2)c(OC)c1OC 2.51 µM [rising, partial curve]
Cc1ccc2cc(C3C(C#N)=C(N)Oc4c3ccc3cccnc43)c(=O)[nH]c2c1 (centres undefined) 31.6 µM [rising, single point]
CN(C)S(=O)(=O)c1ccc(NC(=O)COC(=O)c2n[nH]c3ccccc23)cc1 31.6 µM [rising, single point]
NC(=O)c1cc(C(=O)c2cccc(Cl)c2Cl)c[nH]1 28.2 µM [rising, partial curve]
Cc1cc(C)n2c(Nc3ccc4c(c3)OCCO4)c(-c3ccc(C)o3)nc2n1 15.8 µM [rising, partial curve]
COc1cc2c(cc1OC)C(c1cccc(F)c1)CC(=O)N2 (centres undefined) 8.91 µM [rising, partial curve, poor fit]
CCOCCCNC(=O)COC(=O)/C=C/c1ccc(S(=O)(=O)N2CCc3ccccc32)cc1 11.2 µM [rising, partial curve]
COC1=C/C(=C/c2c(N)n3nc(-c4ccc(C)cc4)sc3nc2=O)C=CC1=O 39.8 µM [rising, single point]
Cc1ccc(S(=O)(=O)N2CC=C(C(=O)NCc3ccccc3)CC2)cc1 15.8 µM [rising, partial curve]
O=C(/C=C/c1cccc(Cl)c1)OCc1cn2cc(Cl)ccc2n1 35.5 µM [rising, single point]
COc1cc(NC(=O)CN2C(=O)c3ccccc3Sc3ccc(C(=O)N4CCOCC4)cc32)cc(OC)c1OC 35.5 µM [rising, partial curve]
O=C(CSC1=NCCS1)Nc1cccc(F)c1 39.8 µM [rising, single point]
Cc1cc(OCC(=O)NC(Cc2ccc(Cl)cc2)C(=O)O)c2c(C)c(C)c(=O)oc2c1 (centres undefined) 39.8 µM [rising, single point]
Cc1ccc(C)c(S(=O)(=O)N2CCN(C(=O)CSc3ccccc3F)CC2)c1 1.58 µM [rising, full curve]

activation, inactive:
COc1ccc2nc(NCc3ccccc3)[nH]c2c1 2.51%
O=C(O)CCSc1nnc(-c2ccc3c(c2)OCO3)o1 -5.59%
Cc1ncc(CO)c(/C=N/Nc2ccc(C(F)(F)F)cn2)c1O -9.26%
CC(=O)c1c(C)[nH]c(C(=O)Nc2cc(C)cc(C)c2)c1C 28%
Cc1c(C(=O)Nc2ccc3c(c2)OCO3)sc2ncn(CC(=O)N3CC(C)CC(C)C3)c(=O)c12 (centres undefined) -9.65%
CC1CC(=O)C2=C(C1)OC(N)=C(C#N)C2c1coc2ccccc2c1=O (centres undefined) 0.937%
CCCN1CCC(=O)N(CCOc2ccccc2)CC1 0.066%
Clc1ccc(OCc2nn3c(C4CCCCC4)nnc3s2)cc1 -3.27%
CC(C)(C)NC(=O)C(c1ccc(O)cc1)N(Cc1ccco1)C(=O)CCC(=O)Nc1ccccn1 (centres undefined) -1.5%
CCN(CC)S(=O)(=O)c1cccc(C(=O)Nc2cc(C)nn2-c2ccccc2)c1 1.96%
CN(C)c1ccc(N=Nc2cccc(F)c2)cc1 -6.2%
CCN(C(=O)CSc1nc2cc(S(=O)(=O)N(CC)CC)ccc2o1)C1CCS(=O)(=O)C1 (centres undefined) -0.674%
CCOc1ccc(NC(=S)N(CCOC)C(C)c2cccnc2)cc1 (centres undefined) -1.3%
Cc1ccc(O)c(-c2cc(-c3ccccc3[N+](=O)[O-])[nH]n2)c1 3.48%
CCOC(=O)/C(=C\c1c[nH]c2ccccc12)NC(C)=O -7.51%
COc1ccc(N/C=C2/Sc3ccccc3NC2=O)cc1 6.87%
CCC1(C)Cc2nc3sc(C(=O)O)c(N)c3cc2CO1 (centres undefined) -2.57%
O=C(CSc1n[nH]c(-c2ccco2)n1)Nc1ccc(Br)cc1 0.0838%
Cc1ccc(NC(=S)NNc2ccc([N+](=O)[O-])cc2S(=O)(=O)Nc2ccccc2C(=O)O)cc1C -24.3%
CCOc1cc(/C=C2/C(=O)NN(c3cccc(Cl)c3)C2=O)ccc1O 0.304% [at 11.5 µM, 0% is enzyme alone, no compound]
CCCCn1c(SCC(N)=O)nc2sc3c(c2c1=O)CCC3 0.665%
O=S(=O)(c1ccc(NC(=S)N/N=C/c2ccc(O)c(O)c2)cc1)N1CCOCC1 -6.13%
Cc1ccccc1C(=O)NNc1ccc(-c2csnn2)cc1 -0.975%
NC1=NC[C@H](Cc2ccc(O)cc2)N1CC1CCCCC1 1.19%
C=C(C)C(=O)Nc1cccc(C2=NOC3(C2)C[C@H](C(N)=O)N(C(=O)c2ccccc2C(=O)c2ccccc2)C3)c1 (some centres undefined) -8.77%
